{"source": "the supplement of paper PMC8728848", "binders": {"B1": {"name": "rEtpA (Escherichia coli) (protein)", "chain": "MNRIYKLKFDKRRNELVVVSEITTGVGNAKATGSVEGEKSPRRGVRAMALSLLSGMMIMAHPAMSANLPTGGQIVAGSGSIQTPSGNQMNIHQNSQNMVANWNSFDIGKGNTVQFDQPSSSAVALNRVVGGGESQIMGNLKANGQVFLVNPNGVLFGEGASVSTSGFVASTRDIKNDDFMNRRYTFSGGQKAGAAIVNQGELTTNAGGYIVLAADRVSNSGTIRTPGGKTVLAASERITLQLDNGGLMSVQVTGDVVNALVENRGLVSARDGQVYLTALGRGMLMNTVLNVSGVVEASGMHRQDGNIVLDGGDSGVVHLSGTLQADNASGQGGKVVVQGKNILLDKGSNITATGGQGGGEVYVGGGWQGKDSNIRNADKVVMQGGARIDVSATQQGNGGTAVLWSDSYTNFHGQISAKGGETGGNGGRVETSSHGNLQAFGTVSASAKKGKAGNWLLDSADITIVNGSNVSKTETTQSPPHTQFAPTAAGSAVSNTSINNRLNNGTSVTILTHRTRTGTAQGGNITVNAAINKSNGSDVNLTLQAGGNITVNNSITSTEGKLNVNLSGARTSNGSITISNNANITTNGGDITVGTTNTSNRVNISINNTTLNASNGNIQLTGTGTDSGILFAGNNRLTASNIALTGNSTSGNAINLTGTATLNATNNITLTGSSTSGNAINLKGNNTLTASNITLTGESTSGNAINLTDTTGTTTLNATNNITMQGTRVQIKHSNITAGNFALNATVAGSEISNTTLTATNNINLAAKTNSASSGVYLKDARITSTNGSITANGTATANGKATHLDGNVTLNASNGRIKLTGNGHGSASGILFAGNNRLTASNIALTGNSTSGNAINLTGTATLNATNDITLTGSSTSGNAINLTGTATLNATNNITLTGSSTSGNAINLKGNNTLTASNITLTGESTSGNAINLTDTTGTTTLNATNNITMQGTRVQIKHSNITAGNFALNATVAGSEISNTTLTATNNINLAAKTNSASSGVYLKDARITSTNGSITANGTATANGKATHLDGNVTLNASNGRIKLTGNGHGSASGILFAGNNRLTASNIALTGNSTSGNAINLTGTATLNATNDITLTGSSTSGNAINLTGTATLNATNNITLTGSSTSGNAINLKGNNTLTASNITLTGESTSGNAINLTDTTGTTTLNATNNITMQGTRVQIKHSNITAGNFALNATVAGSEISNTTLTATNNINLAAKTNSASSGVYLKDARITSTNGSITANGTATANGKATHLDGNVTLNASNGRIKLTGNGHGSASGILFAGNNRLTASNIALTGNSTSGNAINLTGTATLNATNDITLTGSSTSGNAINLTGTATLNATNNITLTGSSTSGNAINLKGNNTLTASNITLTGESTSGNAINLTDTTGTTTLNATNNITMQGTRVQIKHSNITAGNFALNATVAGSEISNTTLTATNNINLAAKTNSASSGVYLKDARITSTNGSITTNGTATANGKATHLDGNVTLNASNGRIKLTGNGHGSASGILFAGNNRLTASNIALTGNSTSGNAINLTGTATLNATNDITLTGSSTSGNAINLTGTATLNATNNITLTGSSTSGNAINLKGNNTLTASNITLTGESTSGNAINLTDTTGTTTLNATNNITMQGTRVQIKHSNITAGNFALNATVAGSEISNTTLTATNNINLAAKTNSASSGVYLKDARITSTNGSITANGTAPANDNATYLDGNVTLNASNGSIKLTGNGNGSTSGILFAGNNTLTASNITLTGNSEVYWQKLGPEQKLISEEDLNSAVDHHHHHH"}}, "test_in_all_cases": "glycan array binding signal (z-score within array); higher = stronger binding", "settings_in_all_cases": "glycan notation: IUPAC condensed, linker removed", "key": {"Fuc(a1-2)Gal": {"biological_target": "Fuc(a1-2)Gal", "procedure,_shortened": "(§1)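 The binding signal is a Z-score computed within each array. Data were drawn from 3228 arrays in the Consortium for Functional Glycomics database, restricted to those with a known protein sequence. Scores were averaged over arrays of the same protein sequence at different concentrations or buffers, and over linkers, and negative values can be taken as non-binding.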"}, "Fuc(a1-2)Gal(b1-3)GalNAc": {"biological_target": "Fuc(a1-2)Gal(b1-3)GalNAc", "procedure,_shortened": "as §1"}, "[1]": {"biological_target": "Fuc(a1-2)Gal(b1-3)GalNAc(a1-3)[Fuc(a1-2)]Gal(b1-4)Glc", "procedure,_shortened": "as §1"}, "[2]": {"biological_target": "Fuc(a1-2)Gal(b1-3)GalNAc(a1-3)[Fuc(a1-2)]Gal(b1-4)GlcNAc", "procedure,_shortened": "as §1"}, "[3]": {"biological_target": "Fuc(a1-2)Gal(b1-3)GalNAc(b1-3)Gal", "procedure,_shortened": "as §1"}, "[4]": {"biological_target": "Fuc(a1-2)Gal(b1-3)GalNAc(b1-3)Gal(a1-4)Gal(b1-4)Glc", "procedure,_shortened": "as §1"}, "[5]": {"biological_target": "Fuc(a1-2)Gal(b1-3)GalNAc(b1-4)[Neu5Ac(a2-3)]Gal(b1-4)Glc", "procedure,_shortened": "as §1"}, "Fuc(a1-2)Gal(b1-3)GlcNAc": {"biological_target": "Fuc(a1-2)Gal(b1-3)GlcNAc", "procedure,_shortened": "as §1"}, "[6]": {"biological_target": "Fuc(a1-2)Gal(b1-3)GlcNAc(b1-2)Man(a1-3)[Fuc(a1-2)Gal(b1-3)GlcNAc(b1-2)Man(a1-6)]Man(b1-4)GlcNAc(b1-4)GlcNAc", "procedure,_shortened": "as §1"}, "[7]": {"biological_target": "Fuc(a1-2)Gal(b1-3)GlcNAc(b1-2)Man(a1-3)[Fuc(a1-2)Gal(b1-3)GlcNAc(b1-2)Man(a1-6)]Man(b1-4)GlcNAc(b1-4)[Fuc(a1-6)]GlcNAc", "procedure,_shortened": "as §1"}, "[8]": {"biological_target": "Fuc(a1-2)Gal(b1-3)GlcNAc(b1-3)Gal(b1-4)Glc", "procedure,_shortened": "as §1"}, "[9]": {"biological_target": "Fuc(a1-2)Gal(b1-3)GlcNAc(b1-3)GalNAc", "procedure,_shortened": "as §1"}, "[10]": {"biological_target": "Fuc(a1-2)Gal(b1-3)GlcNAc(b1-3)[Fuc(a1-2)Gal(b1-3)GlcNAc(b1-6)]GalNAc", "procedure,_shortened": "as §1"}, "[11]": {"biological_target": "Fuc(a1-2)Gal(b1-3)GlcNAc(b1-3)[Gal(b1-4)GlcNAc(b1-6)]Gal(b1-4)Glc", "procedure,_shortened": "as §1"}, "[12]": {"biological_target": "Fuc(a1-2)Gal(b1-3)GlcNAc(b1-3)[Neu5Ac(a2-6)Gal(b1-4)GlcNAc(b1-6)]Gal(b1-4)Glc", "procedure,_shortened": "as §1"}, "[13]": {"biological_target": "Fuc(a1-2)Gal(b1-3)GlcNAc6S", "procedure,_shortened": "as §1"}, "[14]": {"biological_target": "Fuc(a1-2)Gal(b1-3)[Fuc(a1-4)]GlcNAc", "procedure,_shortened": "as §1"}, "[15]": {"biological_target": "Fuc(a1-2)Gal(b1-3)[Fuc(a1-4)]GlcNAc(b1-2)Man(a1-3)[Fuc(a1-2)Gal(b1-3)[Fuc(a1-4)]GlcNAc(b1-2)Man(a1-3)]Man(b1-4)GlcNAc(b1-4)GlcNAc", "procedure,_shortened": "as §1"}, "[16]": {"biological_target": "Fuc(a1-2)Gal(b1-3)[Fuc(a1-4)]GlcNAc(b1-2)Man(a1-3)[Fuc(a1-2)Gal(b1-3)[Fuc(a1-4)]GlcNAc(b1-2)Man(a1-6)]Man(b1-4)GlcNAc(b1-4)[Fuc(a1-6)]GlcNAc(b1-4)[Fuc(a1-6)]GlcNAc", "procedure,_shortened": "as §1"}, "[17]": {"biological_target": "Fuc(a1-2)Gal(b1-3)[Fuc(a1-4)]GlcNAc(b1-3)[Fuc(a1-3)[Gal(b1-4)]GlcNAc(b1-6)]Gal(b1-4)Glc", "procedure,_shortened": "as §1"}, "[18]": {"biological_target": "Fuc(a1-2)Gal(b1-3)[Fuc(a1-4)]GlcNAc(b1-3)[Gal(b1-4)GlcNAc(b1-6)]Gal(b1-4)Glc", "procedure,_shortened": "as §1"}, "Fuc(a1-2)Gal(b1-4)Glc": {"biological_target": "Fuc(a1-2)Gal(b1-4)Glc", "procedure,_shortened": "as §1"}, "Fuc(a1-2)Gal(b1-4)Glc6S": {"biological_target": "Fuc(a1-2)Gal(b1-4)Glc6S", "procedure,_shortened": "as §1"}, "Fuc(a1-2)Gal(b1-4)GlcNAc": {"biological_target": "Fuc(a1-2)Gal(b1-4)GlcNAc", "procedure,_shortened": "as §1"}, "[19]": {"biological_target": "Fuc(a1-2)Gal(b1-4)GlcNAc(b1-2)Man", "procedure,_shortened": "as §1"}, "[20]": {"biological_target": "Fuc(a1-2)Gal(b1-4)GlcNAc(b1-2)Man(a1-3)[Fuc(a1-2)Gal(b1-4)GlcNAc(b1-2)Man(a1-6)]Man(b1-4)GlcNAc(b1-4)GlcNAc", "procedure,_shortened": "as §1"}, "[21]": {"biological_target": "Fuc(a1-2)Gal(b1-4)GlcNAc(b1-2)Man(a1-3)[Fuc(a1-2)Gal(b1-4)GlcNAc(b1-2)Man(a1-6)]Man(b1-4)GlcNAc(b1-4)[Fuc(a1-6)]GlcNAc", "procedure,_shortened": "as §1"}, "[22]": {"biological_target": "Fuc(a1-2)Gal(b1-4)GlcNAc(b1-2)[Fuc(a1-2)Gal(b1-4)GlcNAc(b1-4)]Man(a1-3)[Fuc(a1-2)Gal(b1-4)GlcNAc(b1-2)Man(a1-6)]Man(b1-4)GlcNAc(b1-4)GlcNAc", "procedure,_shortened": "as §1"}, "[23]": {"biological_target": "Fuc(a1-2)Gal(b1-4)GlcNAc(b1-3)Gal(b1-4)GlcNAc", "procedure,_shortened": "as §1"}, "[24]": {"biological_target": "Fuc(a1-2)Gal(b1-4)GlcNAc(b1-3)Gal(b1-4)GlcNAc(b1-2)Man(a1-3)[Fuc(a1-2)Gal(b1-4)GlcNAc(b1-3)Gal(b1-4)GlcNAc(b1-2)Man(a1-6)]Man(b1-4)GlcNAc(b1-4)GlcNAc", "procedure,_shortened": "as §1"}}, "note": "This is one part of the list.", "data": [{"binder": "B1", "values": [{"measurement": "glycan array binding signal (z-score)", "setting": "Fuc(a1-2)Gal", "value": -0.235}, {"measurement": "glycan array binding signal (z-score)", "setting": "Fuc(a1-2)Gal(b1-3)GalNAc", "value": -0.3}, {"measurement": "glycan array binding signal (z-score)", "setting": "[1]", "value": -0.246}, {"measurement": "glycan array binding signal (z-score)", "setting": "[2]", "value": -0.356}, {"measurement": "glycan array binding signal (z-score)", "setting": "[3]", "value": -0.115}, {"measurement": "glycan array binding signal (z-score)", "setting": "[4]", "value": -0.343}, {"measurement": "glycan array binding signal (z-score)", "setting": "[5]", "value": -0.085}, {"measurement": "glycan array binding signal (z-score)", "setting": "Fuc(a1-2)Gal(b1-3)GlcNAc", "value": 0.222}, {"measurement": "glycan array binding signal (z-score)", "setting": "[6]", "value": 0.038}, {"measurement": "glycan array binding signal (z-score)", "setting": "[7]", "value": 0.335}, {"measurement": "glycan array binding signal (z-score)", "setting": "[8]", "value": -0.419}, {"measurement": "glycan array binding signal (z-score)", "setting": "[9]", "value": -0.417}, {"measurement": "glycan array binding signal (z-score)", "setting": "[10]", "value": -0.424}, {"measurement": "glycan array binding signal (z-score)", "setting": "[11]", "value": -0.058}, {"measurement": "glycan array binding signal (z-score)", "setting": "[12]", "value": -0.391}, {"measurement": "glycan array binding signal (z-score)", "setting": "[13]", "value": -0.279}, {"measurement": "glycan array binding signal (z-score)", "setting": "[14]", "value": -0.19}, {"measurement": "glycan array binding signal (z-score)", "setting": "[15]", "value": 0.758}, {"measurement": "glycan array binding signal (z-score)", "setting": "[16]", "value": 0.292}, {"measurement": "glycan array binding signal (z-score)", "setting": "[17]", "value": -0.388}, {"measurement": "glycan array binding signal (z-score)", "setting": "[18]", "value": -0.339}, {"measurement": "glycan array binding signal (z-score)", "setting": "Fuc(a1-2)Gal(b1-4)Glc", "value": -0.231}, {"measurement": "glycan array binding signal (z-score)", "setting": "Fuc(a1-2)Gal(b1-4)Glc6S", "value": -0.171}, {"measurement": "glycan array binding signal (z-score)", "setting": "Fuc(a1-2)Gal(b1-4)GlcNAc", "value": -0.294}, {"measurement": "glycan array binding signal (z-score)", "setting": "[19]", "value": -0.239}, {"measurement": "glycan array binding signal (z-score)", "setting": "[20]", "value": 1.13}, {"measurement": "glycan array binding signal (z-score)", "setting": "[21]", "value": -0.021}, {"measurement": "glycan array binding signal (z-score)", "setting": "[22]", "value": 0.456}, {"measurement": "glycan array binding signal (z-score)", "setting": "[23]", "value": -0.393}, {"measurement": "glycan array binding signal (z-score)", "setting": "[24]", "value": -0.364}]}]}
